From patent US20230235080A1, “TROPHOBLAST CELL-SURFACE ANTIGEN-2 (TROP-2) ANTIBODIES” (Bionecure Therapeutics, Inc., priority 2020, published 2023)

B1: A1X4-MMAE: A1X4 antibody conjugated to MMAE via mc-vc-PABA (valine-citrulline) linker (conjugate)
heavy: QVQLQESGPGLVKPSETLSLTCTVSGFSLTSYGVNWIRQPPGKGLEWIGVMWAGGSTNYNSALMSRVTISVDTSKNQFSLKLSSVTAADTAVYYCARDENWDGAWFAYWGQGTLVTVSSASTKGPSVFPLAPSSKSTSGGTAALGCLVKDYFPEPVTVSWNSGALTSGVHTFPAVLQSSGLYSLSSVVTVPSSSLGTQAYICNVNHKPSNTKVDKKVG[left out - human IgG1 Fc with K334R T359A (EU numbers)]
light: DIVMTQSPDSLAVSLGERATINCKSSQSLLNSGTRKNYLAWYQQKPGQPPKLLISWASSRESGVPDRFSGSGSGTDFTLTISSLQAEDVAVYYCKQSYNLFTFGGGTKVEIKRTVAAPSVFIFPPSDEQLKSGTASVVCLLNNFYPREAKVQWKVDNALQSGNSQESVTEQDSKDSTYSLSSTLTLSKADYEKHKVYACEVTHQGLSSPVTKSFNRGEC
B2: A1,2X4-MMAE: A1,2X4 antibody conjugated to MMAE via mc-vc-PABA (valine-citrulline) linker (conjugate)
heavy: QVQLQESGPGLVKPSETLSLTCTVSGFSLTSYGVNWIRQPPGKGLEWIGVMWAGGSTNYNSALMSRLTISKDTSKNQFSLKLSSVTAADTAVYYCARDENWDGAWFAYWGQGTLVTVSSASTKGPSVFPLAPSSKSTSGGTAALGCLVKDYFPEPVTVSWNSGALTSGVHTFPAVLQSSGLYSLSSVVTVPSSSLGTQAYICNVNHKPSNTKVDKKVG[left out - human IgG1 Fc with K334R T359A (EU numbers)]
light: DIVMTQSPDSLAVSLGERATINCKSSQSLLNSGTRKNYLAWYQQKPGQPPKLLISWASSRESGVPDRFSGSGSGTDFTLTISSLQAEDVAVYYCKQSYNLFTFGGGTKVEIKRTVAAPSVFIFPPSDEQLKSGTASVVCLLNNFYPREAKVQWKVDNALQSGNSQESVTEQDSKDSTYSLSSTLTLSKADYEKHKVYACEVTHQGLSSPVTKSFNRGEC

Assays:
[1] = test system: Colo205 colon cancer cells; assay: In vitro cytotoxicity of ADC, Colo205; type: cell-based; details: Colo205, low Trop-2 expression; FIG. 8A
Description: (§1) ADCs of the invention containing cytotoxic payloads may be used to kill target cells, such as killing cancer cells. For in vitro assay, MDA-MB-468, SK-BR-3, NCI-N87, Colo205, A549 were tested. All cell lines were cultured in a suitable culture medium at 37° C. in a humidified incubator atmosphere of 5% CO2. Cells were plated in 96-well flat bottom plates. Cell seeding number ranged from 500 cells/100 µl/ well to 6,000 cells/100 µl/well. Cells were allowed to adhere overnight at 37° C. in a humidified atmosphere of 5% CO2. A1X4-MMAE with DAR2, or DAR4, or DAR6 were prepared from stock solution and diluted into appropriated working concentration 24 hr after cell seeding. A serial ten-fold dilution for seven points was performed with culture medium. The final concentrations were ranging from 1000 nM to 0.001 nM. The cells were incubated with ADCs for 72 hours. Cell Counting Kit-8 solution (Dojindo China Co., Ltd, lot#PL701) was added to the wells for 1-4 hr at 37° C. and the absorbance at 450 nm was measured using a Microplate Reader (SpectraMax M5, Molecular Devices) and SoftMax Pro5.4.1 software. The percent of inhibition was calculated by the following formula: (average absorbance of treated samples/average absorbance of control samples) × 100. For all cellular assays, dose-response curves were generated using GraphPad Prism 7 three-parameter curve fitting. […]

N87 gastric cancer cells = assay: In vitro cytotoxicity of ADC, NCI-N87; type: cell-based; details: NCI-N87, moderate Trop-2 expression; FIG. 8A
Description: as §1

[2] = test system: SK-BR-3 ovarian cancer cells; assay: In vitro cytotoxicity of ADC, SK-BR-3; type: cell-based; details: SK-BR-3, moderate Trop-2 expression; FIG. 8A
Description: as §1

[3] = test system: MDA-MB-468 breast cancer cells; assay: In vitro cytotoxicity of ADC, MDA-MB-468; type: cell-based; details: FIG. 8A
Description: as §1

NCI-N87 xenograft = NCI-N87 xenograft model in BALB/c nude mice; type: in vivo, mouse; details: single administration at 5.0 mg/kg, intravenously
Description: (§2) The anti-tumor activities of anti-Trop-2-vc-MMAE ADCs were assessed using Trop-2-positive MDA-MB-468 and NCI-N87 xenograft models in mouse subjects. Five millions NCI-N87 cells were harvested from culture flasks, and implanted subcutaneously into the right flank of 6- to 7-week-old BALB/c nude mice. Tumors were measured twice a week throughout the course of the experiments, with tumor volume calculated using the following formula: tumor volume (mm^3) = (length x width^2)/2.
The ADCs tested in NCI-N87 model were conjugated with different DARs: Benchmark hRS7-MMAE had DAR of 4.33, A1X4-MMAE had DAR of 6.1, and A1,2X4-MMAE had DAR of 5.8. Therefore, the dose administered for each ADC was adjusted to ensure the same amount of payload. As such, Benchmark hRS7-MMAE, A1X4-MMAE or A1,2X4-MMAE was administered at 0.5 mg/kg, 1.0 mg/kg and 1.5 mg/kg. ADCs were administered intravenously as a single bolus dose.

[4] = test system: Trop-2-negative MDA-MB-231 cells; assay: Transwell coculture cell killing assay, Trop-2-negative cells (bystander killing); type: cell-based; details: 1, 10, and 100 nM, 72 hours
Description: (§3) Bystander killing effect has been observed for some ADCs in the preclinical studies. It could not only affect antigen-expressing tumor cells but also adjacent antigen-negative cells through the transfer of released payload from the antigen-expressing cells to the neighboring antigen-negative cells. In order to confirm whether A1,2X4-MMAE induce bystander killing, a transwell coculture cell killing assay was carried out. The Trop-2-positive MDA-MB-468 cells were plated at the bottom of the plate at the density of 3,000 cells/500 µl/ well. Cell culture inserts (Thermo, cat#140627) were inserted and the Trop-2-negative MDA-MB-231 cells were seeded in the inserts at the same density as MDA-MB-468. After 24 hr incubation, A1,2X4-MMAE was added to MDA-MB-468 cells in the bottom well at concentrations of 1, 10, and 100 nM, and incubated for 72 hours. MDA-MB-468 and MDA-MB-231 cell cytotoxicity was measured by Cell Counting Kit-8 as described in Example 7. The percent of inhibition was calculated by the following formula: (average absorbance of treated samples/average absorbance of control samples) × 100.

[5] = test system: Trop-2-positive MDA-MB-468 cells; assay: Transwell coculture cell killing assay, Trop-2-positive cells; type: cell-based; details: 1, 10, and 100 nM; 72 hours
Description: as §3

MDA-MB-468 xenograft = MDA-MB-468 xenograft model in BALB/c nude mice; type: in vivo, mouse
Description: To compare the in vivo anti-tumor activities of ADCs with different DARs, A1X4-MMAE DAR2, A1X4-MMAE DAR4, A1X4-MMAE DAR6 were tested in MDA-MB-468 xenograft model. MDA-MB-468 cells were harvested from culture flasks and mixed with Matrigel (1:1). Five millions cells were implanted subcutaneously into the right flank of 6- to 7-week-old BALB/c nude mice. After tumors were established, mice were divided into groups randomly based on the tumor volume. ADCs were administered intravenously at 1.5 mg/kg as a single bolus dose. Tumors were measured twice a week throughout the course of the study, with tumor volume calculated using the following formula: tumor volume (mm^3) = (length x width^2)/2. Data were analyzed by GraphPad Prism 7 and presented as mean + standard deviation. Statistical analysis was performed with one-way ANOVA.
as §2
To further compare the antitumor activities of different ADCs, A1X4-MMAE and A1,2X4-MMAE were tested head to head in the MDA-MB-468 xenograft model. All ADCs were administered at 1.5 mg/kg single dose.
The impact of dosing regimen on antitumor activity of anti-Trop-2 ADC was evaluated by comparing single and fractionated dosing schedules of A1,2X4-MMAE in Trop-2-positive MDA-MB-468 xenograft model. Three dosing regimens were tested which included 1) one single dose at 1.5 mg/kg; 2) two doses at 0.75 mg/kg given every 7 days; 3) four doses at 0.375 mg/kg given twice weekly.

| Molecule | IC50 [1] | IC50 (N87 gastric cancer cells) | IC50 [2] | IC50 [3] | anti-tumor activity, N87 xenograft (FIG. 10A) (NCI-N87 xenograft) | effect on MDA-MB-231 cells alone (FIG. 9) ([4]; MDA-MB-231 alone) | cell killing under coculture of MDA-MB-468 and MDA-MB-231 (bystander killing, FIG. 9) ([4]; coculture condition) | inhibition of MDA-MB-468 cell proliferation (FIG. 9) [5] | anti-tumor activity, MDA-MB-468 xenograft head to head (FIG. 10B) (MDA-MB-468 xenograft; 1.5 mg/kg single dose) | anti-tumor activity by dosing regimen (FIG. 11) (MDA-MB-468 xenograft; four doses at 0.375 mg/kg given twice weekly) | anti-tumor activity by dosing regimen (FIG. 11) (MDA-MB-468 xenograft; one single dose at 1.5 mg/kg) |
| --- | --- | --- | --- | --- | --- | --- | --- | --- | --- | --- | --- |
| B1 | weakest activity | single-digit | single-digit | single-digit | durable tumor regression |  |  |  |  |  |  |
| B2 |  |  |  |  | durable tumor regression | had no effect | killed both cells | effectively inhibited | more effective than A1X4-MMAE | better tumor growth inhibition than weekly fractionated doses of 0.75 mg/kg | most effective |
